Experimental data: PubChem BioAssay AID1347073 (National Center for Advancing Translational Sciences (NCATS), 2019)
Out of some 45,000 compounds screened, about 200 (0.44%) were called active. Inconclusive results (about 7%) are left out. Calls come from the whole dose curve; as a rule, active = well fitted activation curve with a large enough effect; inconclusive = small, poorly fitted or top-dose-only effect; inactive = no such curve, though single readings can be large or run the other way. The list shows a part of the results.

experiment: qHTS of TDP-43 Inhibitors: NCGC Sytravon Library Screen; details: yeast TDP-43 toxicity rescue, BacTiter-Glo growth, 24 h; series mostly up to 46.1 µM; growth rescue (activation): at the top concentration; note: nearly all actives have a fitted effect of over 55% in size; for growth rescue (activation): 0% is about no effect
How it was run: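 TDP-43-expressing yeast, pregrown in raffinose, seeded at OD600 0.02 in galactose medium with compound for 24 hr at 30 deg C. Growth read by BacTiter-Glo luminescence, so rescue of toxicity appears as activation.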
Potency is the fitted concentration of half-maximal effect.

Question: For `O=C(CN(c1ccccc1)S(=O)(=O)c1ccccc1[N+](=O)[O-])N1CCCC1`, which “growth rescue (activation)” value is on record?
Answer: inactive: 11.9%

Question: With `Cc1ccccc1OCCC(=O)OCC(=O)Nc1ccc(C(N)=O)cc1` as the molecule, how does the “growth rescue (activation)” value read?
Answer: inactive: -41.3%

Question: Which “growth rescue (activation)” value does the source give for `CC1CCCN(C2=NC(=O)/C(=C/c3cn(-c4ccccc4)nc3-c3cccc(S(=O)(=O)N(C)C)c3)S2)C1` (stereo not given) here?
Answer: inactive: 12.6%

Question: Which “growth rescue (activation)” value does the source give for `COc1ccc(S(=O)(=O)N2CCC(C(=O)NCC3CCCO3)CC2)cc1Cl` (stereo not given) here?
Answer: inactive: -10.4%

Question: Which “growth rescue (activation)” value does the source give for `Cc1ccccc1NS(=O)(=O)c1ccc(C)c(NS(C)(=O)=O)c1C` here?
Answer: inactive: 4.72%

Question: For `Cc1ccc(NC(=O)COC(=O)c2sccc2C)cc1S(=O)(=O)N1CCOCC1`, which “growth rescue (activation)” value is on record?
Answer: inactive: -1.37%

Question: For `Cn1ccnc1SCC(=O)c1ccc(Cl)cc1`, which “growth rescue (activation)” value is on record?
Answer: inactive: 19.4%

Question: Which “growth rescue (activation)” value does the source give for `Cc1cnc(C(=O)OCC(=O)N2CCC(C)CC2)cn1` here?
Answer: inactive: 21.3%

Question: With `CC/C(=N\NC(=S)NC(C)C)c1ccc(OC)c(OC)c1` as the molecule, how does the “growth rescue (activation)” value read?
Answer: inactive: 9.91%

Question: For `COc1ccc(CNC(=O)C2CCN(S(=O)(=O)c3ccc(Br)s3)CC2)cc1`, which “growth rescue (activation)” value is on record?
Answer: inactive: 5.68%

Question: Which “growth rescue (activation)” value does the source give for `CC(=O)c1cc2c(cc1NC(=O)C1CN(C(C)=O)c3ccccc3O1)OCO2` (stereo not given) here?
Answer: inactive: 20.7%

Question: Which “growth rescue (activation)” value does the source give for `O=C(CN(c1ccccc1)S(=O)(=O)c1ccccc1)Nc1ccccc1C(=O)NCc1ccco1` here?
Answer: inactive: 7.69%

Question: Which “growth rescue (activation)” value does the source give for `O=C(CN1CCN(Cc2ccccc2)CC1)Nc1ccccc1-c1ccccc1` here?
Answer: inactive: 2.18%

Question: With `COc1ccc(C(=O)Nc2cc3cc(Cl)ccc3oc2=O)cc1OC` as the molecule, how does the “growth rescue (activation)” value read?
Answer: inactive: 2.75%

Question: For `CCN(CC(=O)Nc1ccc(OC)c(OC)c1)CC(=O)Nc1ccccc1C(F)(F)F`, which “growth rescue (activation)” value is on record?
Answer: inactive: -4.32%

Question: Which “growth rescue (activation)” value does the source give for `Cc1ccc(C(=O)CSc2nc3ccccc3c(=O)[nH]2)cc1C` here?
Answer: inactive: 12.6%

Question: For `COc1ccc(/C=N/NC(=O)C2c3ccccc3-c3ccccc32)cc1`, which “growth rescue (activation)” value is on record?
Answer: inactive: -7.93%

Question: Which “growth rescue (activation)” value does the source give for `COc1ccc(C(CC(=O)O)n2cnnn2)cc1` (stereo not given) here?
Answer: inactive: -1.61%

Question: With `CC1CCCCC1NC(=O)C1CCN(S(=O)(=O)c2cccc3nonc23)CC1` (stereo not given) as the molecule, how does the “growth rescue (activation)” value read?
Answer: inactive: 21.5%

Question: For `CC1CC(=O)Nc2ccccc2S1(=O)=O` (stereo not given), which “growth rescue (activation)” value is on record?
Answer: inactive: -34.1%

Question: For `COc1ccc(-c2cn[nH]c2C)cc1OC`, which “growth rescue (activation)” value is on record?
Answer: inactive: -4.08%

Question: With `NC(N)=Nc1nc(-c2ccccc2)c2cc(F)ccc2n1` as the molecule, how does the “growth rescue (activation)” value read?
Answer: inactive: 3.53%

Question: With `CCOc1cc(C2C(C#N)=C(N)Oc3n[nH]c(-c4ccncc4)c32)cc([N+](=O)[O-])c1O` (stereo not given) as the molecule, how does the “growth rescue (activation)” value read?
Answer: inactive: -4.9%

Question: With `CCc1nc2ccc(C(=O)NCCCn3ccnc3)cn2c1N(C)CCC(C)C` as the molecule, how does the “growth rescue (activation)” value read?
Answer: inactive: 5.77%

Question: With `Cn1ccnc1SCc1ccc(Cl)cc1Cl` as the molecule, how does the “growth rescue (activation)” value read?
Answer: inactive: 29.5%

Question: With `Cc1nonc1CN(C)C(=O)CC1C(=O)NCCN1Cc1ccccc1F` (stereo not given) as the molecule, how does the “growth rescue (activation)” value read?
Answer: inactive: 8.04%

Question: For `Cc1nc(SCC(=O)N2CCCC2=O)nc(C)c1C`, which “growth rescue (activation)” value is on record?
Answer: inactive: -7.57%

Question: For `COC(C(=O)Nc1ccc(S(=O)(=O)Nc2cccc3ccccc23)cc1)c1ccccc1` (stereo not given), which “growth rescue (activation)” value is on record?
Answer: inactive: 8.52%

Question: Which “growth rescue (activation)” value does the source give for `O=S(=O)(c1ccc(Cl)cc1)N1CCN(c2nc(-c3cccs3)nc3ccccc23)CC1` here?
Answer: inactive: 13.4%

Question: Which “growth rescue (activation)” value does the source give for `COc1ccc(C2OCC3(CO2)SC(=O)NC3=O)cc1` (stereo not given) here?
Answer: inactive: -4.73%

Question: With `O=C(COc1ccccc1F)OCC(=O)c1ccc([N+](=O)[O-])cc1` as the molecule, how does the “growth rescue (activation)” value read?
Answer: inactive: 8.6%

Question: With `c1ccc(-c2cnnc(SCc3cn4cccnc4n3)n2)cc1` as the molecule, how does the “growth rescue (activation)” value read?
Answer: inactive: 18.7%

Question: With `CN(NS(C)(=O)=O)c1ncc(C(F)(F)F)cc1Cl` as the molecule, how does the “growth rescue (activation)” value read?
Answer: inactive: -4.23%

Question: Which “growth rescue (activation)” value does the source give for `O=C1NC(=S)N/C1=C\c1ccccc1OCc1ccc(C(=O)O)cc1` here?
Answer: inactive: -10.1%

Question: For `COc1ccc(N2CCN(C(=O)CN3C(=O)COc4ccccc43)CC2)cc1`, which “growth rescue (activation)” value is on record?
Answer: inactive: 19.1%

Question: Which “growth rescue (activation)” value does the source give for `CCC(Sc1nc2ccccc2[nH]1)C(=O)Nc1ccc(NC(C)=O)cc1` (stereo not given) here?
Answer: inactive: 10.9%

Question: Which “growth rescue (activation)” value does the source give for `C=CCc1ccc(OCCCCN2CC(C)CC(C)C2)c(OC)c1` (stereo not given) here?
Answer: inactive: -5.27%

Question: Which “growth rescue (activation)” value does the source give for `CCOc1ccccc1Nc1nc2ccccc2n1C(C)C` here?
Answer: inactive: 1.78%

Question: For `COc1ccccc1NC(=O)CSc1nc(N)c(-c2ccccc2)c(=O)[nH]1`, which “growth rescue (activation)” value is on record?
Answer: inactive: -1.39%

Question: With `O=C(N/N=C/c1ccccc1)c1cc(-c2ccc3c(c2)OCO3)n[nH]1` as the molecule, how does the “growth rescue (activation)” value read?
Answer: inactive: 11.3%

Question: With `COc1cc(C(c2c(C)[nH][nH]c2=O)c2c(C)[nH][nH]c2=O)cc(OC)c1OC` as the molecule, how does the “growth rescue (activation)” value read?
Answer: inactive: -3%

Question: With `Cc1c(NS(=O)(=O)c2ccc3nc(COc4ccccc4Cl)[nH]c3c2)c(=O)n(-c2ccccc2)n1C` as the molecule, how does the “growth rescue (activation)” value read?
Answer: inactive: 11.2%

Question: Which “growth rescue (activation)” value does the source give for `O=C(COC(=O)c1cc(Br)ccc1O)NC12CC3CC(CC(C3)C1)C2` here?
Answer: inactive: -6.31%

Question: With `O=C(O)CC(SCC(=O)Nc1ccccc1)C(=O)O` (stereo not given) as the molecule, how does the “growth rescue (activation)” value read?
Answer: inactive: -25.9%

Question: For `CN(CCC#N)C(=O)COC(=O)c1c2c(nc3ccccc13)/C(=C\c1ccco1)CC2`, which “growth rescue (activation)” value is on record?
Answer: inactive: 26.4%

Question: For `CC(=O)c1c(C)[nH]c(C(=O)CSc2ncnc3sc(-c4ccccc4)cc23)c1C`, which “growth rescue (activation)” value is on record?
Answer: inactive: 13.7%

Question: With `COCCN=c1scc(-c2cc(OC)ccc2OC)n1/N=C/c1c[nH]c2ccccc12` as the molecule, how does the Potency read?
Answer: active: 20 µM

Question: Which “growth rescue (activation)” value does the source give for `CCNC(=O)N(C)c1nncnc1C(=O)NC` here?
Answer: inactive: -6.99%

Question: With `OC(c1ccccc1)c1ncc(-c2ccccc2F)[nH]1` (stereo not given) as the molecule, how does the “growth rescue (activation)” value read?
Answer: inactive: 10%

Question: Which “growth rescue (activation)” value does the source give for `Cc1ccc2c(c1)/C(=N/N1C(=O)c3ccccc3C1=O)C(=O)N2` here?
Answer: inactive: 12%

Question: With `Cc1ccc(C(=O)COC(=O)CCCC(=O)Nc2cc(C(F)(F)F)ccc2Cl)cc1C` as the molecule, how does the “growth rescue (activation)” value read?
Answer: inactive: 15.4%

Question: For `Cc1csc(=Nc2ccc(S(=O)(=O)N3CCOCC3)cc2)n1Cc1ccco1`, which “growth rescue (activation)” value is on record?
Answer: inactive: 8.71%

Question: For `COc1ccc(S(=O)(=O)N2CCN(C)CC2)cc1C(=O)N1CCCCC1`, which “growth rescue (activation)” value is on record?
Answer: inactive: 0.858%

Question: For `O=c1cc(CSc2nnc(NC3CCCCC3)s2)nc2sccn12`, which “growth rescue (activation)” value is on record?
Answer: inactive: 10.9%

Question: Which “growth rescue (activation)” value does the source give for `COc1ccc(Cl)cc1NC(=O)c1[nH]c(C)c(C(C)=O)c1C` here?
Answer: inactive: -6.58%
